Results are given in words; binding and its absence hold for the method and conditions named. In cells and extracts the contact can be indirect. Some entries that bind do so weakly or less than the wild type. For part of these data: Sequences can lack the tags named with a protein.
T1: GFP-tagged RMI1 with motif 5 deleted (human) (UniProt Q9H9A7)
T1 sequence: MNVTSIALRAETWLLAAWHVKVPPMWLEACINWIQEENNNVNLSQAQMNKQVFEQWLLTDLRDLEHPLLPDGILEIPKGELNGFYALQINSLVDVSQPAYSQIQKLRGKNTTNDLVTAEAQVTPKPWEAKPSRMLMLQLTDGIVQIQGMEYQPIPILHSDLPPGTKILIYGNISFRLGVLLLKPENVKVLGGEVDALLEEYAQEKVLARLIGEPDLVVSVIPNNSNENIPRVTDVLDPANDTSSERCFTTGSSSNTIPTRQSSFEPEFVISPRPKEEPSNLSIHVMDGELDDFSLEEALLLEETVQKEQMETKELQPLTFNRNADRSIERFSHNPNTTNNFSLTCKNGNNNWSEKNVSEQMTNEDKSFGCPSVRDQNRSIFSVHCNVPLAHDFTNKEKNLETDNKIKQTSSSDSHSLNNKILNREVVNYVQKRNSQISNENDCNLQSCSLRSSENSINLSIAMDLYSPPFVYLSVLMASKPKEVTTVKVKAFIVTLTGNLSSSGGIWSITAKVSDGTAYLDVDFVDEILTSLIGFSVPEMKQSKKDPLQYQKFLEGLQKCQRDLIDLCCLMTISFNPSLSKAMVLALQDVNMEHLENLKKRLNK

Sequences of proteins named here, by UniProt entry; tags and fusion partners are left off. A change or cut given only in a name is not applied to a line headed by its entry.
UniProt P27694: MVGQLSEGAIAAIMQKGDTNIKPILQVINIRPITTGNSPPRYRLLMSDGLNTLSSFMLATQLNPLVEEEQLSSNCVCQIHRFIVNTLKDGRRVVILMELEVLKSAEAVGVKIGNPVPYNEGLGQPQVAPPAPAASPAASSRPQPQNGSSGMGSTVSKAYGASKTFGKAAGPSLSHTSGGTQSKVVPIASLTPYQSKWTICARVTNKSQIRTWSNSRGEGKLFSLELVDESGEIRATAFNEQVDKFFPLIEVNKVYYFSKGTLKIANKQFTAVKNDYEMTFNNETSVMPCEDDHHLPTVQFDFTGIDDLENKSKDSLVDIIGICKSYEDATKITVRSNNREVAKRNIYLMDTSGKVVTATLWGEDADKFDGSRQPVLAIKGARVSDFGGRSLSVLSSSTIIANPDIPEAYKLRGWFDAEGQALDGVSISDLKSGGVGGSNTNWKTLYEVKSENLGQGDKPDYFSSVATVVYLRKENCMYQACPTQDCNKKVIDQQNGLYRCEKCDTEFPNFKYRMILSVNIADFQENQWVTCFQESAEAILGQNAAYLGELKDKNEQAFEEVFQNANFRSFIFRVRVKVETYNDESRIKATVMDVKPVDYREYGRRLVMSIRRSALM

T2: GFP-tagged wild-type RMI1 (human) (UniProt Q9H9A7)
T2 sequence: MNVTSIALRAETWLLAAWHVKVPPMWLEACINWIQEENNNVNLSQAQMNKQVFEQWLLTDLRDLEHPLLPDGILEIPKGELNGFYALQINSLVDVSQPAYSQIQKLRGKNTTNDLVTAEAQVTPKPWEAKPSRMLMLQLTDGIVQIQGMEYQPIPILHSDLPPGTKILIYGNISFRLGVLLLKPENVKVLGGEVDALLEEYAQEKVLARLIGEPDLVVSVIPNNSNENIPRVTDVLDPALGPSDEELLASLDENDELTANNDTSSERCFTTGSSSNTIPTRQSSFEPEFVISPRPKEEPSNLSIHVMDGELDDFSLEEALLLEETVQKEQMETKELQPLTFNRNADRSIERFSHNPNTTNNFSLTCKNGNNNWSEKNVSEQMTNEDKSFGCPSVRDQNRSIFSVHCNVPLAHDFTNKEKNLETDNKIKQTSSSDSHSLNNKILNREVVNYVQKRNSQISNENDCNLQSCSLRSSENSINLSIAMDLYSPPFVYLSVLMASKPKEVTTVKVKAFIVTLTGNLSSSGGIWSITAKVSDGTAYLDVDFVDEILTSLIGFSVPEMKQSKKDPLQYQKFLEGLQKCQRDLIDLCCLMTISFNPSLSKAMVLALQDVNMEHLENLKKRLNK


How the values were obtained:
Test in all cases: co-IP; GFP-Trap magnetic agarose beads, lysates of transfected 293FT cells, Benzonase-treated, 200 mM NaCl, 2 mM EDTA, 2 h at 4 °C, western blotting
GFP-tagged WT RPA1 = GFP-tagged WT RPA1 (UniProt P27694)
[1] = molecular target: GFP-tagged R41E/Y42F RPA1 (UniProt P27694)
[2] = molecular target: T1, GFP-tagged RMI1 with motif 5 deleted (human)
[3] = molecular target: T2, GFP-tagged wild-type RMI1 (human)

Row | binding (GFP-tagged WT RPA1) | binding [1] | binding [2] | binding [3] | Binder
1 | binds | no binding | – | – | TOP3A, endogenous in 293FT cells (protein, UniProt Q13472-1 1-1001) MIFPVARYALRWLRRPEDRAFSRAAMEMALRGVRKVLCVAEKNDAAKGIADLLSNGRMRRREGLSKFNKIYEFDYHLYGQNVTMVMTSVSGHLLAHDFQMQFRKWQSCNPLVLFEAEIEKYCPENFVDIKKTLERETRQCQALVIWTDCDREGENIGFEIIHVCKAVKPNLQVLRARFSEITPHAVRTACENLTEPDQRVSDAVDVRQELDLRIGAAFTRFQTLRLQRIFPEVLAEQLISYGSCQFPTLGFVVERFKAIQAFVPEIFHRIKVTHDHKDGIVEFNWKRHRLFNHTACLVLYQLCVEDPMATVVEVRSKPKSKWRPQALDTVELEKLASRKLRINAKETMRIAEKLYTQGYISYPRTETNIFPRDLNLTVLVEQQTPDPRWGAFAQSILERGGPTPRNGNKSDQAHPPIHPTKYTNNLQGDEQRLYEFIVRHFLACCSQDAQGQETTVEIDIAQERFVAHGLMILARNYLDVYPYDHWSDKILPVYEQGSHFQPSTVEMVDGETSPPKLLTEADLIALMEKHGIGTDATHAEHIETIKARMYVGLTPDKRFLPGHLGMGLVEGYDSMGYEMSKPDLRAELEADLKLICDGKKDKFVVLRQQVQKYKQVFIEAVAKAKKLDEALAQYFGNGTELAQQEDIYPAMPEPIRKCPQCNKDMVLKTKKNGGFYLSCMGFPECRSAVWLPDSVLEASRDSSVCPVCQPHPVYRLKLKFKRGSLPPTMPLEFVCCIGGCDDTLREILDLRFSGGPPRASQPSGRLQANQSLNRMDNSQHPQPADSRQTGSSKALAQTLPPPTAAGESNSVTCNCGQEAVLLTVRKEGPNRGRQFFKCNGGSCNFFLWADSPNPGAGGPPALAYRPLGASLGCPPGPGIHLGGFGNPGDGSGSGTSCLCSQPSVTRTVQKDGPNKGRQFHTCAKPREQQCGFFQWVDENTAPGTSGAPSWTGDRGRTLESEARSKRPRASSSDMGSTAKKPRKCSLCHQPGHTRPFCPQNR
2 | binds | no binding | binds | binds | RMI2, endogenous in 293FT cells (protein, UniProt Q96E14-1 1-147) MAAAADSFSGGPAGVRLPRSPPLKVLAEQLRRDAEGGPGAWRLSRAAAGRGPLDLAAVWMQGRVVMADRGEARLRDPSGDFSVRGLERVPRGRPCLVPGKYVMVMGVVQACSPEPCLQAVKMTDLSDNPIHESMWELEVEDLHRNIP
